Test results: the supplement of paper PMC3334620
Over roughly 33,000 sequences, “E-score (-0.5 to 0.5)” has its median near -0.035; the highest 2% begin near 0.35. This is one part of the list.

The sequences below were run against T1, Pdr3 (UniProt P33200) (assay: PBM E-score (8-mer binding enrichment) (E-score (-0.5 to 0.5)); higher = stronger / more preferred TF binding; most listed sequences are background and not binding sites). Settings: protein concentration: 200 nM; construct: GST-full length.
T1 sequence: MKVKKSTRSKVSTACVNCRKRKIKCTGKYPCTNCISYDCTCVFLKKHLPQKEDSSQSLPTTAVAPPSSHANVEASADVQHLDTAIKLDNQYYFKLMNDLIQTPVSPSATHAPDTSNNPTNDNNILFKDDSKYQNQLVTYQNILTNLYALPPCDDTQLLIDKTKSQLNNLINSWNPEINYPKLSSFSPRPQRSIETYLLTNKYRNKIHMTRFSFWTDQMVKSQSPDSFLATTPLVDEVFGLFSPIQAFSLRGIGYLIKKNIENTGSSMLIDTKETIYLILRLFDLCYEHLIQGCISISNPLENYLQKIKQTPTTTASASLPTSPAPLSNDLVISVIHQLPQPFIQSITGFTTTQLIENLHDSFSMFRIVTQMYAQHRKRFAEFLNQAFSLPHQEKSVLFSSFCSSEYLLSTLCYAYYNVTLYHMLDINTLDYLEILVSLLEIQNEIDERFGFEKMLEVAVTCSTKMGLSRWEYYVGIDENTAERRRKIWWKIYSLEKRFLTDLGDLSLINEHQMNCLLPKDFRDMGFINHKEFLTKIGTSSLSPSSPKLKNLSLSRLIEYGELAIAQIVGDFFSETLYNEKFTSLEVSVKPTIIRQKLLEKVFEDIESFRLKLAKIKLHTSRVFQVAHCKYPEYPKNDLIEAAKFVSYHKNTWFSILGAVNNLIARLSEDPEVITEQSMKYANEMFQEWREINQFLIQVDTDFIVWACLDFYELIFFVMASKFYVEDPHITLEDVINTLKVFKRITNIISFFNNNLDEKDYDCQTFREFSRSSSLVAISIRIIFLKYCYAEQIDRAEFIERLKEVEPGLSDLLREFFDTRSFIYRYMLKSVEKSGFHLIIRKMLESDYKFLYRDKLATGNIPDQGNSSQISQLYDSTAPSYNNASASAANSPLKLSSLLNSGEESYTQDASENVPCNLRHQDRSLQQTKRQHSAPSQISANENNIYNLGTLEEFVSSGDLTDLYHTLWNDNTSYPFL
Procedure, shortened: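 Full-length yeast transcription factors or their DNA-binding domains, GST-tagged and expressed with PURExpress, were applied at about 100-200 nM to universal all-10-mer Agilent arrays. These arrays had been made double-stranded by primer extension on fresh or once-stripped slides. Detection used fluorescent anti-GST, normalisation used masliner, and E-scores for ungapped eight-base words pooled with reverse complements came from the Universal PBM Analysis Suite.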

Row | Sequence | PBM E-score
1 | GTGTCGCA | -0.131
2 | AATGGGTA | -0.0347
3 | GCCCCTCC | 0.0388
4 | CCTGCATA | -0.123
5 | CCCAGTAC | -0.149
6 | AGGACTTA | -0.19
7 | AACGGTAT | -0.0131
8 | CGCGGATC | 0.431
9 | CGCACAGC | 0.0571
10 | AAGGGGGC | -0.191
11 | AGTGAAGC | -0.0813
12 | GGTAAACA | -0.0588
13 | AGCTGAAC | -0.111
14 | AAATCTGG | 0.0438
15 | AGTTCCCC | 0.0744
16 | AAGTAAGG | -0.0828
17 | TACTCGAA | -0.149
18 | AAAGCATC | 0.0539
19 | ATGGGGAA | 0.0538
20 | GTGATCAC | -0.00647
21 | AATCGACC | 0.0407
22 | CATCAAAC | 0.0114
23 | GGGTTGGA | 0.115
24 | CAGTGGGA | -0.102
25 | AGTAAGAT | -0.0128

Row | Sequence | PBM E-score
26 | AACTCTCA | -0.206
27 | CTCCTGGC | -0.0304
28 | GACTGGAA | -0.245
29 | CCCACAAA | 0.0858
30 | CTTACGGA | 0.237
31 | CGGAGAAG | 0.28
32 | AAATAGTG | -0.0421
33 | ACCCTGGA | -0.254
34 | AGGGCAGA | -0.308
35 | TCTACCAA | -0.0675
36 | ATCGAGCG | 0.214
37 | CCCTGTCA | -0.221
38 | GGTTGTTA | -0.0774
39 | CGAACCAG | 0.069
40 | AATGCAAT | -0.324
41 | AATCGGAT | 0.317
42 | CCAGTCGA | -0.05
43 | GGGAACGA | 0.0381
44 | AGTCTTCG | -0.202
45 | GATCTACA | 0.0626
46 | ACAGACCT | 0.072
47 | ACGGTTGA | -0.0694
48 | AGTACCCG | 0.198
49 | AAAATTCA | 0.0718
50 | CAAAGGTC | -0.158

Row | Sequence | PBM E-score
51 | CAAGCTCC | -0.0359
52 | AACTGTGC | -0.154
53 | GTGCACTA | 0.0628
54 | GCTGTCAA | -0.0502
55 | AAGGAAGG | -0.205
56 | TCAGAACA | -0.107
57 | CACTAGTC | -0.0804
58 | CCCACGGG | 0.311
59 | ACCAGTGC | -0.309
60 | AAGTGAGT | -0.109
61 | CGGTAAGA | 0.204
62 | TAAGTATA | 0.0261
63 | ATAGACCA | -0.0783
64 | TCCCCAGA | -0.212
65 | ATCACCGA | 0.0155
66 | GCGAGTAA | 0.169
67 | CATTGCGC | 0.0238
68 | GGCACCAC | 0.0627
69 | AATTCCCT | -0.207
70 | AACACACC | 0.15
71 | ATATTGCC | -0.0524
72 | ACAAAGTA | -0.0427
73 | AGTACATC | -0.105
74 | AGGCGCCC | -0.0609
75 | CGACAGTA | 0.0677

Row | Sequence | PBM E-score
76 | AGTAATAC | 0.0919
77 | AAAGTAAC | 0.0284
78 | ACCTCTAG | -0.0623
79 | AGTGAATA | -0.00303
80 | GGCGCAAC | 0.102
81 | ACGCCCAA | 0.00636
82 | CGGCTGGA | 0.228
83 | ACGAAGAC | -0.173
84 | CGCTCTGA | 0.0645
85 | CCCCGGTC | 0.137
86 | ACCGTTCG | 0.0291
87 | CATCAGCA | -0.0707
88 | CGTGGCTA | -0.0717
89 | GATCCATC | 0.232
90 | CATTGGGA | -0.109
91 | AATCAATA | 0.0626
92 | TGCCCCCA | -0.276
93 | CCAGTTGC | -0.176
94 | ATCATTAA | 0.136
95 | ACAGCGAA | -0.03
96 | TGAGAGCA | -0.0205
97 | CCCCTCCG | 0.251
98 | AACCAATA | 0.0232
99 | AAGTGTTG | 0.0656
100 | AACGAACC | 0.0386

Row | Sequence | PBM E-score
101 | TACAGTCA | -0.157
102 | AGTACTCC | 0.151
103 | CGTCAGCA | -0.0948
104 | ACACGGGC | 0.171
105 | AATTTTCT | -0.0164
106 | AACAGTCT | -0.212
107 | GATCTAAC | 0.0861
108 | AATATATG | 0.164
109 | CCCGCCAC | 0.254
110 | AAAGGGCG | 0.0479
111 | TACGCCAA | -0.311
112 | CTTCGTCA | -0.0401
113 | CGATACAC | -0.185
114 | CGCCGAGA | 0.228
115 | ATAAATCC | 0.0975
116 | AACAAAGT | 0.209
117 | CCCGATTC | 0.134
118 | ATTTGAAC | 0.0748
119 | ACACTGAC | 0.0461
120 | ACACCTAG | -0.208
121 | CGGCACGA | 0.292
122 | CACCTATG | -0.12
123 | ACCTGTCA | -0.19
124 | GCGTGCTA | -0.338
125 | CTGCTCTA | -0.0167

Row | Sequence | PBM E-score
126 | ATAGATGG | -0.184
127 | CATGTTCC | 0.281
128 | GCTGCCTA | -0.102
129 | ACGGGTGC | 0.135
130 | AAATCTAC | 0.0743
131 | CAATTATA | -0.157
132 | CGCCTTTA | -0.0716
133 | CGGTAGTA | -0.09
134 | GCTTGTGA | -0.252
135 | CCAGTCTA | -0.261
136 | GAGCGGCC | 0.0807
137 | ACAAGCGA | 0.0877
138 | CCTGATAC | -0.0182
139 | CAGTGTTC | 0.11
140 | AAATCTGT | 0.00886
141 | AAAATAGT | -0.0861
142 | ATCTCGTC | 0.0833
143 | CCACTGCG | -0.00589
144 | AGCCCAAG | -0.136
145 | AAAGCGGT | -0.0821
146 | ATGTTCGC | -0.165
147 | GATCTCTA | -0.17
148 | CCTTCGAC | -0.191
149 | ACTTAACG | -0.234
150 | CACGCTGC | -0.115

Row | Sequence | PBM E-score
151 | CAAGAGGC | -0.113
152 | AGGTCCAC | -0.095
153 | GGGTTCAC | 0.179
154 | ATGCTGTA | -0.0465
155 | GAGTATCC | 0.189
156 | CATAGACC | -0.0935
157 | GGGATCTA | 0.105
158 | CTAACAGC | 0.101
159 | ATAGCCGA | 0.191
160 | TCGTCCCA | -0.04
161 | AACGCAGT | -0.121
162 | ATTTGTAA | -0.00432
163 | CAGCCCTA | 0.113
164 | AATATATA | 0.0898
165 | ATGTGAAA | -0.184
166 | ACCACCAA | -0.0661
167 | CTCAGTGA | -0.36
168 | AAGTGCTC | -0.107
169 | GCTGTAGA | 0.0283
170 | ACAATTCT | -0.127
171 | ATGATCAG | -0.221
172 | GAGTATCA | -0.0466
